The values below come from the RNAGym collection of RNA variant scans (doi:10.1101/gad.245936.114).

Variants at the background level are over-represented here.

To fix the notation:
B1: tRNA (parent)
chain: CUCUCGGUAGCCAAGUUGGUUUAAGGCGCAAGACUUUAAUUUAUCACUACGAAAUCUUGAGAUCGGGCGUUCGACUCGCCCCCGGGAGAUUUUUUCCUCGAGCAA

The series covers variants of B1. The series can be described thus: nonsense suppression (GFP-seq) (ratio to wild type); higher = more function; SUP4oc tRNA, yeast GFP reporter sort-seq. The method, boiled down:
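Each variant's nonsense suppression (GFPSEQ) is a cell-share-weighted bin median GFP/RFP relative to the unmutated parent tRNA. Yeast with genome-integrated tRNA variants from a ~3% random-mutation library, a galactose-driven GFP ochre reporter and RFP were grown in raffinose/galactose medium with 80 mg/L adenine, then sorted into GFP/RFP bins for Illumina sequencing. Variants needed ≥100 reads and ≥30 cells.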
On to U71C C72G, for which the nonsense suppression was not above 0.026.

Consider G10A C11G G26C U57G U63A, for which the nonsense suppression is not above 0.026.

With A23C G25A, the nonsense suppression is not above 0.026.

Turning to G25C G78A, the nonsense suppression is not above 0.026.

As for A9U G25C G66U G86C, the nonsense suppression is not above 0.026.

Take U17C A60C G67U: the nonsense suppression is not above 0.026.

On to U2G C5G, for which the nonsense suppression was not above 0.026.

Regarding U16G U55C C77G C82U, the nonsense suppression was not above 0.026.

Turning to A30U U58A G65C C80A, the nonsense suppression was not above 0.026.

A31C G84A: the nonsense suppression is not above 0.026.

On to U21G U58G, for which the nonsense suppression was not above 0.026.

Take U20A U22G G67A U71C: the nonsense suppression is not above 0.026.

Turning to U21A A30C C80A, the nonsense suppression is not above 0.026.

For G10C A23U U63A C68U, the nonsense suppression is not above 0.026.

As for U57C C79U, the nonsense suppression was not above 0.026.

With A54G C64G U71G, the nonsense suppression was not above 0.026.

As to G67C G85C, the nonsense suppression is not above 0.026.

On to U8G U22C A60C C72G, for which the nonsense suppression is not above 0.026.

Consider C11A G67A U76A, for which the nonsense suppression is not above 0.026.

On to A74C C81U, for which the nonsense suppression is not above 0.026.

Consider C5A G73C, for which the nonsense suppression was not above 0.026.

Regarding U63C G66C U71C, the nonsense suppression was not above 0.026.

On to U20A G32A, for which the nonsense suppression is not above 0.026.

With G6C G59C, the nonsense suppression is not above 0.026.

On to G59C C79G, for which the nonsense suppression was not above 0.026.

For the variant U8C C27G C68G, the nonsense suppression was not above 0.026.

Turning to G10C U63A G88C, the nonsense suppression is not above 0.026.

As for U55G G69C C79A, the nonsense suppression was not above 0.026.

With U2G U16G G19A A24G U57G G88C, the nonsense suppression was not above 0.026.

On to U2A C11A A24U G78A, for which the nonsense suppression is not above 0.026.

On to C3U C12U A60G G67A, for which the nonsense suppression is not above 0.026.

Regarding C3A C29A U71C, the nonsense suppression was not above 0.026.

As to C1A C34G G66A, the nonsense suppression was not above 0.026.

As to U16C G59U, the nonsense suppression is not above 0.026.

Regarding G59U G61A, the nonsense suppression was not above 0.026.

For G15C U58A A60U, the nonsense suppression is not above 0.026.

Take C3A U4G G86A: the nonsense suppression is not above 0.026.

Take A13G A14G: the nonsense suppression was not above 0.026.

In the case of A9G A33G U35G C80G, the nonsense suppression was not above 0.026.

With A62U G67U G69U, the nonsense suppression was not above 0.026.

On to U4A G19A C29A, for which the nonsense suppression was not above 0.026.

With G69U C72G, the nonsense suppression is not above 0.026.

Regarding U17C C27G U71A, the nonsense suppression was not above 0.026.

On to U17A A23C, for which the nonsense suppression is not above 0.026.

In the case of C34U U76A, the nonsense suppression was not above 0.026.

As for C27U G32A U71G, the nonsense suppression is not above 0.026.

Turning to C27U C77U, the nonsense suppression is not above 0.026.

Consider G19A G26U, for which the nonsense suppression was not above 0.026.

As for U57G C72G, the nonsense suppression is not above 0.026.

Consider U4A G26A A33U, for which the nonsense suppression is not above 0.026.

In the case of A62C C77A, the nonsense suppression is not above 0.026.

G15U G25C A87G: the nonsense suppression was not above 0.026.

In the case of U58G C82G, the nonsense suppression is not above 0.026.

As to G7U G32A A33C C83A A89G, the nonsense suppression was not above 0.026.

On to C1G C5U U70A A89C, for which the nonsense suppression was not above 0.026.

As to C3U U20G A24G, the nonsense suppression was not above 0.026.

Turning to G6U U17G A24U C29U C79G, the nonsense suppression is not above 0.026.

On to C3U G7C A33G G65A G67A, for which the nonsense suppression is not above 0.026.

For the variant C5U U55C G88A, the nonsense suppression was not above 0.026.

Take C11A A31U A60C: the nonsense suppression is not above 0.026.

With U4G A30C, the nonsense suppression is not above 0.026.

As to G15U U21A U58G G73U, the nonsense suppression is not above 0.026.

C68U G84A: the nonsense suppression is not above 0.026.

On to U20G G28A C82U, for which the nonsense suppression stood at 0.239.

Take G15U A30C C75G C77A: the nonsense suppression is not above 0.026.

With A24U U70G A74C C81U C82U, the nonsense suppression is not above 0.026.

G10U C12U A14G G15A G59U G67U G85A: the nonsense suppression is not above 0.026.

In the case of U57C A74U C82A, the nonsense suppression was not above 0.026.

Turning to C29A C75U, the nonsense suppression turned out to be 0.0265.

Consider G10C G15U G18C A54G, for which the nonsense suppression was not above 0.026.

Consider U20A U35G A60C G69A C82A, for which the nonsense suppression was not above 0.026.

In the case of U4C A23G C68A A87G, the nonsense suppression is not above 0.026.

On to U16G A23G, for which the nonsense suppression amounted to 0.129.

C5U C29A C75A: the nonsense suppression was not above 0.026.

Regarding U2A C29U C75G, the nonsense suppression is not above 0.026.

For the variant G25U G67C C79A, the nonsense suppression was not above 0.026.

Consider A23G A24G, for which the nonsense suppression is not above 0.026.

For the variant C11G A23G U58A, the nonsense suppression was not above 0.026.

With U70C G86C, the nonsense suppression was not above 0.026.

As to U16G U17C A33U G84U, the nonsense suppression was not above 0.026.

Turning to G26C G69A U76A C82A, the nonsense suppression is not above 0.026.

For G7U U57G A60U A62G, the nonsense suppression was not above 0.026.

With U17A G26U G28C C83G, the nonsense suppression is not above 0.026.

For G15C, the nonsense suppression was not above 0.026.

With G6C A9G G25C C27A A30G C34G A87U, the nonsense suppression was not above 0.026.

Turning to C1G G32U, the nonsense suppression is not above 0.026.

For C11U A24G C72U C79U A87C, the nonsense suppression was not above 0.026.

As to G10U G25A U55A, the nonsense suppression is not above 0.026.

Regarding U16A A30G, the nonsense suppression worked out at 0.312.

Turning to A54G C77G, the nonsense suppression was not above 0.026.

In the case of A33G G85U, the nonsense suppression was not above 0.026.

In the case of U17A A23C C68G, the nonsense suppression was not above 0.026.

For the variant U57C C75G C79A G88C, the nonsense suppression is not above 0.026.

On to G18C A89G, for which the nonsense suppression is not above 0.026.

For the variant C80U G85C, the nonsense suppression is not above 0.026.

A13U G26C A31G A33G G67A G85U: the nonsense suppression is not above 0.026.

Consider A23U A31G G67U G84U, for which the nonsense suppression was not above 0.026.

G61U G86A: the nonsense suppression was not above 0.026.

Regarding G18U U21G G25U G32U U63C G85A, the nonsense suppression is not above 0.026.

With A9C U63C G84U, the nonsense suppression is not above 0.026.

For the variant A30G G32U U57A G88A, the nonsense suppression is not above 0.026.

With A23U G25A U57C C81G, the nonsense suppression was not above 0.026.

For the variant U8A A31U U71G, the nonsense suppression is not above 0.026.

Regarding U16A G19C U20C G28U U55G, the nonsense suppression is not above 0.026.

A74G A87U: the nonsense suppression is not above 0.026.

For the variant G32U G86A, the nonsense suppression was not above 0.026.

Turning to A31U U55C G59C U63G A89G, the nonsense suppression is not above 0.026.

With C11U A23C, the nonsense suppression is not above 0.026.

For U17G G61C, the nonsense suppression is 0.371.

Take U35C U76A C83U: the nonsense suppression is not above 0.026.

Turning to U17A G19A U63C C72G G88A, the nonsense suppression is not above 0.026.

Turning to C27U C34U G69C, the nonsense suppression is not above 0.026.

Consider C11G G18C G59C U63C, for which the nonsense suppression is not above 0.026.

On to C1U C5U G7C, for which the nonsense suppression was not above 0.026.

For the variant U35G C56U U63C, the nonsense suppression is not above 0.026.

For the variant C5G A9U A33C, the nonsense suppression is not above 0.026.

Consider G32U U71C G85U, for which the nonsense suppression was not above 0.026.

Turning to U21G A54C, the nonsense suppression amounted to 0.764.

For the variant C3G C83U, the nonsense suppression was not above 0.026.

Consider A74U G86C, for which the nonsense suppression is not above 0.026.

For the variant U8A C11G C81U, the nonsense suppression was not above 0.026.

C1U G6U G28U C29A: the nonsense suppression was not above 0.026.

For the variant U55C G61A, the nonsense suppression amounted to 0.194.

For the variant A9C A13U G69U A89U, the nonsense suppression was not above 0.026.

For the variant G18A G86C A87G, the nonsense suppression is not above 0.026.

C34G U57G G85A: the nonsense suppression is not above 0.026.

In the case of A14U A62U G69A, the nonsense suppression was not above 0.026.

As for U8G G61A A74G, the nonsense suppression was not above 0.026.

With G7A G61A, the nonsense suppression is not above 0.026.

As for U2C G32U, the nonsense suppression was not above 0.026.

Consider U8C C11G, for which the nonsense suppression was not above 0.026.

Take C5G G28C G88C: the nonsense suppression is not above 0.026.

Consider G18A A54G C77G, for which the nonsense suppression was not above 0.026.

As for G28A U35G G67A G84C, the nonsense suppression was not above 0.026.

C1U A23U C29G U58A G73C: the nonsense suppression was not above 0.026.

With A62U U71A, the nonsense suppression was not above 0.026.

As to U2G C3U A60U, the nonsense suppression was not above 0.026.

Regarding U4C U35A C64G G88C, the nonsense suppression is not above 0.026.

Consider U2G C79G, for which the nonsense suppression is not above 0.026.

With C1G A23G G26U G61A, the nonsense suppression was not above 0.026.

As to G6A A30U A33C G59U C72A U76C, the nonsense suppression was not above 0.026.

Regarding A24G A33G U70A G86A, the nonsense suppression is not above 0.026.

On to A13U C72U C77A, for which the nonsense suppression was not above 0.026.

Turning to U57A G61A, the nonsense suppression came to 0.0464.

Turning to U16C G67U, the nonsense suppression is not above 0.026.

On to U2G A33C A60U G73C, for which the nonsense suppression was not above 0.026.

As for U8G A23C G86A, the nonsense suppression was not above 0.026.

For the variant U22A G25U G78A, the nonsense suppression was not above 0.026.

Regarding G28U G61C C82G, the nonsense suppression is not above 0.026.

U35C G73A: the nonsense suppression is not above 0.026.

For the variant U35G U55G, the nonsense suppression is not above 0.026.

U16C C34G C64G C79A: the nonsense suppression was not above 0.026.

As for C12A C75G, the nonsense suppression is not above 0.026.

For the variant A24U C29U G73A C77A G78A, the nonsense suppression is not above 0.026.

For the variant G18A U57G A60C G67A A74U, the nonsense suppression was not above 0.026.

On to G28U C77A, for which the nonsense suppression is not above 0.026.

C72U C81A: the nonsense suppression was not above 0.026.

As to U17A A33G, the nonsense suppression is 0.104.

With G6C C56A U76G, the nonsense suppression is not above 0.026.

For the variant C11A G67C U70G, the nonsense suppression is not above 0.026.

Consider C5A C64A C77A, for which the nonsense suppression was not above 0.026.

G73A G86U: the nonsense suppression was not above 0.026.

Turning to U16A G65A G66A, the nonsense suppression is not above 0.026.

G18U U20A A60C: the nonsense suppression is not above 0.026.

As for G19U C27A U57C, the nonsense suppression was not above 0.026.

As for A30C U76G, the nonsense suppression is not above 0.026.

As for G7C C12G G59A, the nonsense suppression is not above 0.026.
